# ± gives the standard deviation of the averaged measurements. The list shows a part of the results.
# Test system: PfAP2-I AP2 domain 3 (GST-tagged)
# Test: gcPBM binding intensity (ln(normalized median fluorescence intensity)); higher = stronger DNA binding
# Summary of the method: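 In this array assay, P. falciparum DNA-binding domains with a GST tag, expressed in E. coli, were applied for 1 h to primer-extended double-stranded 36-bp intergenic genomic probes and negative controls on an Agilent 4 × 180k array. Bound protein was visualised with Alexa488 anti-GST antibody at 488 nm. Binding intensity is the highest Masliner-normalised natural-log median intensity across replicate spots of either probe orientation.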
row,Sequence,gcPBM binding intensity (ln)
1,AATAAAAATCCACAAGCACACAAATGTACTTATATA [CACACA_site8783],7.74 ± 0.49
2,ACAAGATGATGGAAATGTACATAAAAAGAATCATAT [XGTACX_site8682],8.51 ± 0.88
3,TTTTTTTTTATATTTAGTACATATATATTATTATAT [XGTACX_site3334],7.8 ± 0.61
4,AACACTACATAAAACTGTACAATAGTATTTTATTAT [XGTACX_site996],7.67 ± 0.47
5,CTTAGTGTATTTGAATGTACGCATAAATATAATTAT [XGTACX_site2830],7.84 ± 0.4
6,ATTATTAAAATGATATGTACGCACATAATATACATA [XGTACX_site3236],8.09 ± 0.4
7,ATAATATTTTGAAACGGTACACTTTTAAAATACACT [XGTACX_site4423],7.88 ± 0.42
8,AAAATAAGGAAAAAAAAAAAAAAAAAAAAAAAAAAG [CACACA_negctrl_site1291],8.04 ± 0.7
9,TATTGAAACGTATAGACACACATATGATATATATAT [CACACA_site3226],9.05 ± 0.19
10,ATTTATTTATTTATATGTACTTATATATGTATTTTC [XGTACX_site6269],7.83 ± 0.65
11,TGTATTTAAAATGGTTGTACATAAATAAAAATAAAA [XGTACX_site7771],8.1 ± 0.55
12,AAAGTGTTAACCTAATCTTTAGTTTTTAAACAATAT [CACACA_negctrl_site841],7.49 ± 0.59
13,TTAATTAAATATTATACACACAAAAAAATAACTTTA [CACACA_site6197],7.58 ± 0.61
14,ATGTATTAAAAAAATTGTACTATAAAATGTAACCGC [XGTACX_site8083],7.92 ± 0.58
15,AAGGCAAGCACTTAAACATGCATATAATAATATCAT [TGCATGCA_site698],8.1 ± 0.39
16,ATAATATATATATATGCATGTACATATTTATCTTTA [TGCATGCA_site32],7.79 ± 0.56
17,AAAAAAAAAAAAAACATACACACAAATATATACATA [CACACA_site4010],8.1 ± 0.38
18,ATATTATTTTAAAGTACACACATATATTAATATATA [CACACA_site2315],8.2 ± 0.23
19,TATACATACAGACCCACACACAAAAAAAAAAAAAAA [CACACA_site6536],8.05 ± 0.54
20,ATATATATATATATATGTACATATATATATGTATAT [XGTACX_site3959],9.47 ± 0.79
21,ATATCTTATGTTATCACACACACACGCACAAAACAG [CACACA_site6800],9.08 ± 0.028
22,ATTTGTTTACCTAAAAGTACAAATTTTTTATGTATA [XGTACX_site7689],7.58 ± 0.64

row,Sequence,gcPBM binding intensity (ln)
1,ATTTTTTTTATTTTTTATATAATTTTTTTATATTAT [CACACA_negctrl_site1521],7.55 ± 0.51
2,TGTATTTATAAACATGCACACGTGGTTGTATTTATA [CACACA_site5762],9.85 ± 0.59
3,TATCCCTTAGAATACACACCCATATGAGTGTGAACT [CACACA_site7398],7.62 ± 0.39
4,TGTTTTGTTTTTTGGGGTACATGTTTTGTATTATAT [XGTACX_site7997],8.79 ± 0.47
5,AATTTACAAATATAATGTACATAATTATATATATAT [XGTACX_site278],8.87 ± 0.26
6,ATATATATATATTACACACACACAAAAAAAATAAAG [CACACA_site118],9.07 ± 0.18
7,TTTGGTTATATTTAAAAAAGACTAATGAAAATTAAA [XGTACX_negctrl_site526],7.39 ± 0.43
8,AAAAAAAAAAAAAATACACACATAAAATAAATAACA [CACACA_site439],8.03 ± 0.32
9,CATACCATACATAAAACACACAAAATTTACAGAATA [CACACA_site7451],7.88 ± 0.23
10,AATAGTAAAAATCACTGTACGTTTATTTTTAAAATG [XGTACX_site1035],7.79 ± 0.28
11,CCATATACAACCATACGTACATATATATATATATAT [XGTACX_site8193],9.33 ± 0.64
12,TATAATATTATACATAGTACACATCACACATCGCAA [XGTACX_site4650],8.05 ± 0.39
13,ATATTATTTATAGGGTGTACCTTATTATTATAAGAA [XGTACX_site7148],7.73 ± 0.28
14,TAGAAAAACATTACGTGTACCAAACATCCTAGCAAC [XGTACX_site4888],7.95 ± 0.67
15,TATATACTTTTATGTACACACCTATAATATGGGTGA [CACACA_site5044],7.68 ± 0.16
16,TTATACATAAATTTTGTACACACAAAAAAAAAAAAG [CACACA_site8374],7.95 ± 0.33
17,TTTCAAAAGTAATACTGTACTTATTTTTATGATTTA [XGTACX_site4184],7.8 ± 0.18
18,ACATATATATATATATATATATATATATTACATTTA [CACACA_negctrl_site627],8.54 ± 0.28
19,GAATTTTTTTAATGTTGTACTTTTTTTTTTTTTTCT [XGTACX_site648],7.83 ± 0.26
20,ACATATTTTATTTTTTGTACACATATATTATTTTTT [XGTACX_site6528],8.28 ± 0.42
21,TTTTTGTTAAACAGGGTGCTAATCTGAATTAATATT [GTGCAC_site9908],9.44 ± 0.14
22,CTTTATAATATTTGTTGTACACAAATATAACATATT [XGTACX_site709],8.05 ± 0.45

row,Sequence,gcPBM binding intensity (ln)
1,AATAATACAAAAGTTCAACAAAAAAAAAAAAAAAAT [CACACA_negctrl_site952],7.63 ± 0.4
2,AATATATTTATAAGCACACACTAATAAACACAGACA [CACACA_site4377],8.38 ± 0.26
3,GTACATAATTATTATGCACACATATTTTTATGTATT [CACACA_site8132],9.96 ± 0.36
4,AAATATATATATATATATATATATGTGTGTGTATAT [GTGCAC_negctrl_site1],8.26 ± 0.33
5,TGTATAATATATATATGTACTTATGTATAATATTAT [XGTACX_site4328],7.74 ± 0.49
6,TGCATAAAAGTAAAAACATGCATGCCGTGGTATCTT [TGCATGCA_site664],7.75 ± 0.92
7,AAGATATCTAAGGAAATTAAACTACCAAAATATATA [TGCATGCA_negctrl_site338],7.39 ± 0.59
8,GACATATAAATATACACACATACGTAAGTATATTAA [CACACA_site1790],7.63 ± 0.43
9,TTTTTATGGATATTTATATTATATTATGATTAAAAA [TGCATGCA_negctrl_site204],7.43 ± 0.46
10,AAATGAAAGAATTAAAGTACATTTATATAATTTTAA [XGTACX_site3540],7.47 ± 0.4
11,AAGAGAAAAACATACACACACAACAAAATATGTATA [CACACA_site2719],7.75 ± 0.38
12,TAATAATAATTATATACACACATGTATATTATATTT [CACACA_site1501],7.66 ± 0.32
13,ATTTAAATATATTATTGTACATATACCTAATAAGAA [XGTACX_site6655],7.82 ± 0.45
14,ACTCCTATATAAATGAACCATATTCATAATATATAT [CACACA_negctrl_site1636],7.64 ± 0.59
15,AAAATTAGGTATATATGTACATATATAAATATATAT [XGTACX_site3555],7.88 ± 0.42
16,TCCTTATATGGGCACACACACACAATAAAATGAAAA [CACACA_site1030],8.49 ± 0.11
17,GTTTATATTAAACAAACACACACATATATATATATA [CACACA_site8749],9.36 ± 0.39
18,TATGCTACAAGGAGAACACACAATTGCCACTTTTGG [CACACA_site2166],8 ± 0.72
19,AACCATTATTTCTCTACACACATTTATGTCATTTAC [CACACA_site1499],8.1 ± 0.84
20,TACATGCATTTCTCATGTACATAATTTTCCCATATT [XGTACX_site5158],8.16 ± 0.28
21,ATAAATTAAAGACACACACACATCTGGATACCCCTA [CACACA_site7546],8.04 ± 0.5
22,TTATATTATATATATAGTACACATGTAATATTTCAA [XGTACX_site1791],7.76 ± 0.35

row,Sequence,gcPBM binding intensity (ln)
1,ATCTATATAATATATACACACAAATATACAAAAAAA [CACACA_site1013],8.01 ± 0.42
2,TAAATATGCTCACAGATGCACTAACACATTTTTATA [GTGCAC_site9997],8.92 ± 0.4
3,TTTTATACATAAATGTGTACGTATATATAATGAATT [XGTACX_site2762],8.17 ± 0.17
4,TATTGTAGAGGCAAAAGTACACATTTAATAATTTCC [XGTACX_site1151],7.79 ± 0.45
5,ATTTAAAAATAAAGAACACACATATGTAAAATATAT [CACACA_site3754],7.83 ± 0.68
6,CAAAATATAACATCATCACACACATATACTTTATAT [CACACA_site8292],7.64 ± 0.49
7,TTATTAATATATAAATGTACATATACAATACATAAA [XGTACX_site5571],7.62 ± 0.3
8,TATTTAAGAGTATGAACACACATCATACACATATAA [CACACA_site3617],7.56 ± 0.44
9,TATGTTTGTGTATATATTTATTTTTATGTAATTATA [GTGCAC_negctrl_site219],7.75 ± 0.45
10,AATAGAACTATTACACGTACAGAACATGAATTAGTT [XGTACX_site7518],7.72 ± 0.62
11,TGTTATATATGTAATTGTACACTTATACAAAATTAT [XGTACX_site6350],7.85 ± 0.38
12,TTTTTTAATTAGTACAAACACACATATACAGACAAA [CACACA_site2564],8.38 ± 0.28
13,AAAAAAATTAGACACACACACACATATAAATATGTA [CACACA_site6618],7.57 ± 0.54
14,ATTTAGAATGCGTATACACACATATATAGATTTGCT [CACACA_site626],7.64 ± 0.64
15,TCAACACACGTGGAATGTACTTTAGTATAAGAATTC [XGTACX_site7842],7.74 ± 0.64
16,TAAATATATTTCATGACATGCAACTTGTTTTTTTGT [TGCATGCA_site456],7.63 ± 0.7
17,ATAAAAAAAAGACACACACACATATATATATATATA [CACACA_site3073],9.44 ± 0.26
18,TCTTTTACAAAAGCTATAACATTCACCACATTATAA [GTGCAC_negctrl_site133],7.68 ± 0.65
19,TATATATATATATAAACACACATAAATATAAATATA [CACACA_site1121],9.09 ± 0.3
20,ATAATATATACGTGTGTGCACATGACAAAAGCATAT,9.59 ± 0.69
21,GTTAATGTGGTTACTTGTACATATTAACGTCTTTTT [XGTACX_site2617],7.77 ± 0.42
22,AAAAAAAAAATATACACACACATATATATATATATA [CACACA_site3404],9.36 ± 0.24

# From the supplement of paper PMC11417369
